Experimental data taken from PubChem BioAssay (Tox21).
Several values for one entry are separate records, joined by “and”; a condition that tells them apart may be missing. Equal entries are not always repeated. Inconclusive results, whose numbers are uncertain, are shown with a selection of clear calls. For some assays here: Where the call is inconclusive, the potency comes from a doubtful curve fit. Activity calls are given as the source filed them. Unless noted, calls follow the shape of the dose curve; as a rule, active = well fitted curve in the direction sought with a large enough effect in the repeat runs; inconclusive = weak or mixed curves; inactive = no such curve, though single readings can be large; an effect the other way counts as inactive or inconclusive.

Columns and labels:
[1] = qHTS assay for small molecule agonists of the antioxidant response element (ARE) signaling pathway (AID 743202; active = well fitted activation curve with a large enough effect in the signal ratio in the repeat runs, not every such curve was filed as active; inconclusive = weak or mixed curves, or effect the other way; inactive = no such curve, though single readings can be large or run the other way; the % refers to the signal ratio; also: potency is read from the fitted curve at half-maximal effect; as to activation: % is scaled to controls: 0 for no effect and ±100 for the full control effect); settings: HepG2 ARE-bla reporter, beta-lactamase FRET, 16 h; activation: at 73.3 µM (top of the series) unless noted
Method in brief: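 HepG2 ARE-bla cells; 16 h treatment at 37 C; FRET-based beta-lactamase fluorescence read after 2 h substrate incubation at room temperature.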

[2] = qHTS assay to identify small molecule agonists of the peroxisome proliferator-activated receptor delta (PPARd) signaling pathway - cell viability counter screen (AID 743211); settings: PPARd-bla HEK293H viability, CellTiter-Glo luminescence, 17 h; activity change, negative = cytotoxicity: at 62.6 µM (top of the series); also: nearly all actives have a fitted effect of over 55% in size; also: potency is read from the fitted curve at half-maximal effect
Method in brief: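 Counter screen for cytotoxicity run in parallel with the PPARd reporter screen. Beta-lactamase reporter HEK293H cells exposed to compounds 17 h; ATP-based CellTiter-Glo luminescence quantified viability.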

[3] = target: Peroxisome proliferator-activated receptor delta (Homo sapiens) (UniProt Q03181); test: qHTS assay to identify small molecule antagonists of the peroxisome proliferator-activated receptor delta (PPARd) signaling pathway (AID 743215; active = well fitted inhibition curve with a large enough effect in the signal ratio in the repeat runs, not every such curve was filed as active; inconclusive = weak or mixed curves, or effect the other way; inactive = no such curve, though single readings can be large or run the other way; the % refers to the signal ratio;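 also: cells stimulated with agonist L165041 at 300 nM final during compound exposure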; also: potency is read from the fitted curve at half-maximal effect; as to ratio activity, negative = inhibition: % is scaled to controls: 0 for no effect and ±100 for the full control effect); settings: HEK293H PPARd-UAS-bla, beta-lactamase FRET ratio, antagonist, 17 h; ratio activity, negative = inhibition: at 62 µM (top of the series) unless noted
Method in brief: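 Cells: HEK293H with a UAS-driven beta-lactamase reporter responsive to PPARd. Compounds were co-added with L165041 (300 nM, final) and incubated 17 h at 37 C before a 2 h room-temperature FRET substrate step and fluorescence reading.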

[4] = qHTS assay to identify small molecule agonists of the farnesoid-X-receptor (FXR) signaling pathway - cell viability counter screen (AID 743218); settings: FXR-bla HEK293T viability, CellTiter-Glo luminescence, 16 h; viability change, negative = cytotoxic: at 62.6 µM (top of the series) unless noted; also: nearly all actives have a fitted effect of over 45% in size; also: potency is read from the fitted curve at half-maximal effect
Method in brief: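 Cells were seeded, left 5 h at 37 C and 5% CO2, then dosed with compound in DMSO for 16 h. After the beta-lactamase FRET read, CellTiter-Glo was added and luminescence measured 30 min later.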

[5] = qHTS assay to identify small molecule antagonists of the farnesoid-X-receptor (FXR) signaling pathway - cell viability counter screen (AID 743221; active = well fitted cell-killing curve with a large enough effect in the repeat runs, not every such curve was filed as active; inconclusive = weak or mixed curves, or effect the other way; inactive = no such curve, though single readings can be large or run the other way; also: nearly all actives have a fitted effect of over 50% in size; also: potency is read from the fitted curve at half-maximal effect); settings: FXR-bla HEK293T viability, CellTiter-Glo luminescence, 16 h; activity change, negative = cytotoxicity: at 62.6 µM (top of the series) unless noted
Method in brief: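 Multiplexed counter screen: viability of FXR-bla HEK 293T cells under agonist stimulation by chenodeoxycholic acid (50 uM, final) and test compound for 16 h at 37 C, measured by CellTiter-Glo luminescence in the reporter wells.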

[6] = target: Vitamin D3 receptor (Homo sapiens) (UniProt P11473); test: qHTS assay to identify small molecule antagonists of the vitamin D receptor (VDR) signaling pathway (AID 743223; active = well fitted inhibition curve with a large enough effect in the signal ratio in the repeat runs, not every such curve was filed as active; inconclusive = weak or mixed curves, or effect the other way; inactive = no such curve, though single readings can be large or run the other way; the % refers to the signal ratio; also: potency is read from the fitted curve at half-maximal effect); settings: VDR-UAS-bla HEK293T, beta-lactamase FRET ratio, 16 h
Method in brief: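 Cells carrying a VDR-driven beta-lactamase reporter (VDR-bla) were co-treated with compound and 3 nM final 1alpha,25-dihydroxyvitamin D3 for 16 h at 37C; reporter activity was measured as FRET substrate fluorescence after 2 h at room temperature.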

[7] = qHTS assay to identify small molecule antagonists of the peroxisome proliferator-activated receptor delta (PPARd) signaling pathway - cell viability counter screen (AID 743213); settings: PPARd-bla HEK293H viability, CellTiter-Glo luminescence, 17 h; viability change, negative = cytotoxic: at 62 µM (top of the series) unless noted; also: nearly all actives have a fitted effect of over 50% in size; also: potency is read from the fitted curve at half-maximal effect
Method in brief: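 Luminescence from CellTiter-Glo, added after the bla read and incubated 30 min at room temperature, gives viability of HEK293H PPARd-bla cells exposed to compounds for 17 h at 37 C with 300 nM L165041.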

[8] = target: Bile acid receptor (Homo sapiens) (UniProt Q96RI1); test: qHTS assay to identify small molecule antagonists of the farnesoid-X-receptor (FXR) signaling pathway (AID 743217; active = well fitted inhibition curve with a large enough effect in the signal ratio in the repeat runs, not every such curve was filed as active; inconclusive = weak or mixed curves, or effect the other way; inactive = no such curve, though single readings can be large or run the other way; the % refers to the signal ratio; also: % is scaled to controls: 0 for no effect and ±100 for the full control effect); settings: HEK293T FXR-UAS-bla, beta-lactamase ratio, CDCA-stimulated, 16 h; at 62.6 µM (top of the series)
Method in brief: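 Cells carrying a UAS-driven beta-lactamase reporter (GeneBLAzer FXR-UAS-bla HEK 293T) were plated and rested 5 h at 37 °C. Compounds in DMSO were added alongside chenodeoxycholic acid agonist at 50 uM final and left 16 h at 37 °C before FRET substrate readout.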

[9] = qHTS assay to identify small molecule agonists of the vitamin D receptor (VDR) signaling pathway - cell viability counter screen (AID 743224); settings: VDR-bla HEK293T viability, CellTiter-Glo luminescence, 16 h; activity change, negative = cytotoxicity: at 62.6 µM (top of the series); also: nearly all actives have a fitted effect of over 50% in size; also: potency is read from the fitted curve at half-maximal effect
Method in brief: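 Cells: VDR-bla, 2,000/well, settled 4 h. Treatment: compounds in DMSO, 16 h, 37C/5% CO2. Readout: CellTiter-Glo luminescence after 30 min RT.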

[10] = qHTS assay for small molecule activators of the heat shock response signaling pathway - cell viability counter screen (AID 743209); settings: HSE-bla HeLa viability, CellTiter-Glo luminescence, 5 h; activity change, negative = cytotoxicity: at 62.6 µM (top of the series); also: % is scaled to controls: 0 for no effect and ±100 for the full control effect; nearly all actives have a fitted effect of over 50% in size
Method in brief: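 Cytotoxicity counter screen run in parallel with the HSE beta-lactamase reporter, using the same wells. HeLa HSE-bla cells received compound for 5 h at 37 C; ATP-based CellTiter-Glo luminescence was measured after 30 min at room temperature.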

[11] = target: Vitamin D3 receptor (Homo sapiens) (UniProt P11473); test: qHTS assay to identify small molecule agonists of the vitamin D receptor (VDR) signaling pathway (AID 743222; calls by dose curve; also: potency is read from the fitted curve at half-maximal effect); settings: HEK293T VDR-UAS-bla, beta-lactamase FRET ratio, 16 h; activation: at 63.5 µM (top of the series) unless noted
Method in brief: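 Cells carrying a VDR-driven beta-lactamase reporter are seeded at 2,000 per well and rested 4 h. Compounds in DMSO are added for 16 h at 37C, and FRET substrate fluorescence is measured after 2 h at room temperature.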

[12] = target: Bile acid receptor (Homo sapiens) (UniProt Q96RI1); test: qHTS assay to identify small molecule agonists of the farnesoid-X-receptor (FXR) signaling pathway (AID 743220; active = well fitted activation curve with a large enough effect in the signal ratio in the repeat runs, not every such curve was filed as active; inconclusive = weak or mixed curves, or effect the other way; the % refers to the signal ratio; also: potency is read from the fitted curve at half-maximal effect); settings: HEK293T FXR-UAS-bla, beta-lactamase FRET ratio, 16 h; activation: at 62.6 µM (top of the series)
Method in brief: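 FXR-UAS-bla HEK 293T cells carrying a UAS-driven beta-lactamase reporter were plated for 5 h at 37C/5% CO2, then exposed to DMSO-dissolved Tox21 10K compounds for 16 h at 37C. A LiveBLAzer B/G FRET substrate was loaded for 2 h at room temperature before fluorescence reading.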

[13] = qHTS assay to identify small molecule antagonists of the vitamin D receptor (VDR) signaling pathway - cell viability counter screen (AID 743225); settings: VDR-bla HEK293T viability, CellTiter-Glo luminescence, 16 h; viability change, negative = cytotoxic: at 61 µM (top of the series) unless noted; also: nearly all actives have a fitted effect of over 50% in size; also: potency is read from the fitted curve at half-maximal effect
Method in brief: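 HEK293T VDR-bla; cpd + 1a,25-(OH)2D3 3 nM final, 16 h 37C/5% CO2; B/G FRET substrate 2 h RT; then CellTiter-Glo 30 min RT, luminescence.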

[14] = qHTS assay for small molecule agonists of the antioxidant response element (ARE) signaling pathway - cell viability counter screen (AID 743203; calls by dose curve; also: potency is read from the fitted curve at half-maximal effect; nearly all actives have a fitted effect of over 55% in size); settings: ARE-bla HepG2 viability, CellTiter-Glo luminescence, 16 h; viability change, negative = cytotoxic: at 73.3 µM (top of the series)
Method in brief: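 Cytotoxicity was tested in parallel with the ARE reporter screen. ARE-bla HepG2 cells were exposed to compounds for 16 hrs, and viability was taken from CellTiter-Glo luminescence.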

[15] = target: Peroxisome proliferator-activated receptor delta (Homo sapiens) (UniProt Q03181); test: qHTS assay to identify small molecule agonists of the peroxisome proliferator-activated receptor delta (PPARd) signaling pathway (AID 743212; calls by dose curve; also: % is scaled to controls: 0 for no effect and ±100 for the full control effect); settings: HEK293H PPARd-UAS-bla, beta-lactamase FRET ratio, 17 h; activation: at 62.6 µM (top of the series) unless noted
Method in brief: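 Tox21 library screened in GeneBLAzer PPARd UAS-bla HEK293H cells. After compound treatment at 37 C, a FRET-based beta-lactamase substrate was applied for 2 h and fluorescence recorded.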

[16] = activity change, negative = inhibition: at 61 µM (top of the series) unless noted
Tags tell the direction and shape of the fitted curve or compound fluorescence and quenching.

Sequence of UniProt Q03181 (Q03181 whole entry, looked up): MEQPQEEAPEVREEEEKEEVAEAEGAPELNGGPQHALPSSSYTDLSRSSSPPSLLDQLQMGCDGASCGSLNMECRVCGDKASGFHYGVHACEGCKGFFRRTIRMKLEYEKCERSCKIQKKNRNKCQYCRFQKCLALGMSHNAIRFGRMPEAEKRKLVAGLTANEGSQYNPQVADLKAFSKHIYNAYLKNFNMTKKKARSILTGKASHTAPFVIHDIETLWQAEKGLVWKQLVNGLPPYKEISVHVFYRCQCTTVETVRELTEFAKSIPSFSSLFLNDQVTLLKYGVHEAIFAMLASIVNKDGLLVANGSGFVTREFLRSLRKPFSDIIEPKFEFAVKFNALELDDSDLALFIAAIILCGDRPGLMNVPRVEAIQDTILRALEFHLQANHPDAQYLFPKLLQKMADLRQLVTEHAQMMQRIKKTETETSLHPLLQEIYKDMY
Sequence of UniProt P11473 (P11473 whole entry, looked up): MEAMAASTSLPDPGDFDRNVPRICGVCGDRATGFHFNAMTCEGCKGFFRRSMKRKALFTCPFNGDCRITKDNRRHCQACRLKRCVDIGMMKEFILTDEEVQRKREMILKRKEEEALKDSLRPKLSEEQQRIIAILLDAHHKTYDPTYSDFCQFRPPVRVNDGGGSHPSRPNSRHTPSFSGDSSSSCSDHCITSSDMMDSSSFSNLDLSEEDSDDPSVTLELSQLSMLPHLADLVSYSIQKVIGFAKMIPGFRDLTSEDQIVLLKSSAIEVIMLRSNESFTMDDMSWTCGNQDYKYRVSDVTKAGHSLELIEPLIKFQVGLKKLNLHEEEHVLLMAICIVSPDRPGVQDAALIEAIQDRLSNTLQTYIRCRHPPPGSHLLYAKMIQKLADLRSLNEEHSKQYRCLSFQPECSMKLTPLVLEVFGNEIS
Sequence of UniProt Q96RI1 (Q96RI1 whole entry, looked up): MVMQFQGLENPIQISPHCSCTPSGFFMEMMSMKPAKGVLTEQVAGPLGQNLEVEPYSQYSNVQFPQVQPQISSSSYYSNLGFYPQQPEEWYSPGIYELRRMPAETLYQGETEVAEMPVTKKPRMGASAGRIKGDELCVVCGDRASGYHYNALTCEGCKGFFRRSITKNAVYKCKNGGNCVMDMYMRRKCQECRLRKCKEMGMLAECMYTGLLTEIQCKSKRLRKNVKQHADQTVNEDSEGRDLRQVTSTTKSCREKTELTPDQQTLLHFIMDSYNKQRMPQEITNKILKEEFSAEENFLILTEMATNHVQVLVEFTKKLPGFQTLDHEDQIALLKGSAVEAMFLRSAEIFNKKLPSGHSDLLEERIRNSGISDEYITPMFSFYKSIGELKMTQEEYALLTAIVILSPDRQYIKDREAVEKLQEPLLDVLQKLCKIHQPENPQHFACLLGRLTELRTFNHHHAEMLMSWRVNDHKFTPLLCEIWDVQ

O=C=NC1CCC(CC2CCC(N=C=O)CC2)CC1 (stereo not drawn)
Potency [1]: inactive
Potency [2]: inconclusive: 30.9 µM [cytotoxic, partial curve]
ratio activity, negative = inhibition [3]: inconclusive: 13.9%
Potency [4]: inconclusive: 15.5 µM [cytotoxic, partial curve, poor fit]
Potency [5]: inconclusive: 3.09 µM [falling, partial curve, poor fit]
Potency [6, 16]: inactive

COc1cc(/C=C/C(N)=O)cc(OC)c1OC
Potency [1]: inactive
Potency [2]: inactive
Potency [7]: inactive
Potency [3]: inactive

O=C(O)CC(C(=O)O)C(CC(=O)O)C(=O)O (stereo not drawn)
activity change, negative = inhibition [8]: inactive: -0.526%

O=C(c1ccccc1)C(O)c1ccccc1 (stereo not drawn)
activity change, negative = inhibition ([6]; at 61 µM (top of the series)): inactive: 7.68% and inactive: -1.87%

CCCCC(C=O)CC (stereo not drawn)
Potency [9]: inactive

NCCNCCNCCN
Potency [9]: inactive

COC(Cc1ccccc1)OC
Potency [10]: inactive

O=C1c2ccccc2C(=O)C1c1ccc2cc(S(=O)(=O)O)cc(S(=O)(=O)O)c2n1
Potency [1]: active: 5.25 µM
Potency [4]: inconclusive: 5.3 µM [cytotoxic, full curve]

Brc1ccc(Oc2ccc(Br)cc2)cc1
activation [1]: inconclusive: -8.25%
Potency [6, 16]: inconclusive: 0.0123 µM [activator, full curve, poor fit]

CCOC(=O)c1ccc(C)cc1
Potency [1]: inactive
Potency [6, 16]: inconclusive: 2.75 µM [fluorescent, full curve, poor fit]

COC(OC)C(C)c1ccccc1 (stereo not drawn)
Potency [1]: inconclusive: 77 µM [rising, partial curve, poor fit]
Potency [11]: inconclusive: 24.5 µM [rising, single point]
Potency [6, 16]: inactive
Potency [9]: inconclusive: 3.89 µM [cytotoxic, partial curve, poor fit]

C#CC(C)N(C)C(=O)Nc1ccc(Cl)cc1 (stereo not drawn)
Potency [1]: inactive
Potency [4]: active: 0.436 µM
activity change, negative = inhibition [6, 16]: inconclusive: 28.7%

Cc1ccc(C(=O)C(C)CN2CCCCC2)cc1 (stereo not drawn)
Potency [1]: active: 23.7 µM
Potency [12]: inactive
Potency [6, 16]: inactive
Potency [9]: inactive
Potency [13]: inactive

O=P(c1ccccc1)(c1ccccc1)c1ccccc1
activation [1]: inconclusive: 26.3%
Potency [12]: inactive
Potency [6, 16]: inactive

CC1=CC(=O)NS(=O)(=O)O1
Potency [14]: inconclusive: 27.4 µM [rising, single point]
Potency [12]: inactive
activity change, negative = inhibition [6, 16]: inconclusive: 19.1%

COC(=O)C(C)(C)C
Potency [1]: inactive
Potency [6, 16]: inactive
Potency [13]: inactive

O=S(=O)(O)c1ccc2ccccc2c1
Potency [1]: inconclusive: 61.3 µM [rising, single point]
activity change, negative = inhibition [6, 16]: inconclusive: -3.96%
Potency [13]: inactive and inconclusive: 980 nM [cytotoxic, single point]

CC1=NN(c2cc(S(=O)(=O)O)ccc2Cl)C(=O)C1N=Nc1ccccc1 (stereo not drawn)
Potency [1]: inactive
Potency [13]: inactive

Fc1c(F)c(F)c(Br)c(F)c1F
Potency [1]: inconclusive: 30.6 µM [rising, partial curve]
Potency [4]: inactive
Potency [5]: inactive
activity change, negative = inhibition [6, 16]: inconclusive: 0.899%
Potency [13]: inactive

CC1(C)S[C@@H]2[C@H](NC(=O)C(C(=O)O)c3ccccc3)C(=O)N2[C@H]1C(=O)O (stereo partly drawn)
activation [1]: inconclusive: -9.61%
Potency [12]: inconclusive: 26.6 µM [rising, partial curve, poor fit]

NCCS
Potency [1]: inactive
Potency [12]: inconclusive: 13.3 µM [rising, partial curve, poor fit]
Potency [6, 16]: inactive

COc1c(Cl)ccc(Cl)c1C(=O)O
Potency [1]: inactive
Potency [4]: inactive
Potency [11]: inactive

O=C(c1ccccc1)c1ccc2n1CCC2C(=O)O (stereo not drawn)
Potency [1]: inactive
Potency [4]: inactive

SCCOCCOCCS
Potency [1]: inconclusive: 13.7 µM [rising, full curve]
Potency [6, 16]: inconclusive: 27.5 µM [activator, partial curve, poor fit]

O=C(Cl)c1ccc(F)c(Cl)c1
Potency [1]: inactive
Potency [11]: inactive

O=c1[nH]c2ccccc2c(=O)n1CCCl
Potency [1]: inconclusive: 29.8 µM [rising, single point]
Potency [13]: inconclusive: 0.535 µM [cytotoxic, single point]

CC(C)(CO)C(O)C(=O)NCCCO (stereo not drawn)
Potency [14]: inconclusive: 38.6 µM [cytotoxic, partial curve, poor fit]
Potency [6, 16]: inactive

CC[C@H](C)[C@@H](C(=O)O)n1sc2ccccc2c1=O
Potency [1]: inconclusive: 27.3 µM
viability change, negative = cytotoxic [4]: inconclusive: -37.2% [cytotoxic]
Potency [6, 16]: inactive

O=C(c1ccccc1)c1ccc(O)c(O)c1O
Potency [14]: inconclusive: 77 µM [cytotoxic, single point]
Potency [2]: inactive
activation [15]: inconclusive: -1.02% [at 81.1 µM]
Potency [7]: inconclusive: 22.1 µM [cytotoxic, partial curve, poor fit]
Potency [3]: inconclusive: 17.4 µM [fluorescent, single point]
ratio activity, negative = inhibition [3]: inconclusive: 3.01% [at 80.4 µM]
Potency [4]: inconclusive: 62.2 µM [cytotoxic, single point]
activity change, negative = inhibition [6, 16]: inconclusive: 21%
activity change, negative = inhibition ([6]; at 78.8 µM (top of the series)): inactive: 12%
Potency [13]: inconclusive: 69.8 µM [cytotoxic, single point]
